These are yes or no findings as the source states them, for the method shown. Some entries that bind do so weakly or less than the wild type.
B1: AT-HOOK MOTIF CONTAINING NUCLEAR LOCALIZED #20 (AtAHL20) (protein, UniProt Q8GWQ2 1-281)
chain: MANPWWTNQSGLAGMVDHSVSSGHHQNHHHQSLLTKGDLGIAMNQSQDNDQDEEDDPREGAVEVVNRRPRGRPPGSKNKPKAPIFVTRDSPNALRSHVLEISDGSDVADTIAHFSRRRQRGVCVLSGTGSVANVTLRQAAAPGGVVSLQGRFEILSLTGAFLPGPSPPGSTGLTVYLAGVQGQVVGGSVVGPLLAIGSVMVIAATFSNATYERLPMEEEEDGGGSRQIHGGGDSPPRIGSNLPDLSGMAGPGYNMPPHLIPNGAGQLGHEPYTWVHARPPY
B2: AtAHL19 (protein, UniProt Q9SR17 1-315)
chain: MANPWWTGQVNLSGLETTPPGSSQLKKPDLHISMNMAMDSGHNNHHHHQEVDNNNNDDDRDNLSGDDHEPREGAVEAPTRRPRGRPAGSKNKPKPPIFVTRDSPNALKSHVMEIASGTDVIETLATFARRRQRGICILSGNGTVANVTLRQPSTAAVAAAPGGAAVLALQGRFEILSLTGSFLPGPAPPGSTGLTIYLAGGQGQVVGGSVVGPLMAAGPVMLIAATFSNATYERLPLEEEEAAERGGGGGSGGVVPGQLGGGGSPLSSGAGGGDGNQGLPVYNMPGNLVSNGGSGGGGQMSGQEAYGWAQARSGF
B3: AtAHL6 (protein, UniProt Q9LVB0 1-404)
chain: MEEKGEISPSGVVTVKGDEALVPRTEFQQNPSFLQFVSPTTVVTPLPPPPAPSSAPVPTTVTPGSATASTGSDPTKKKRGRPRKYAPDGSLNPRFLRPTLSPTPISSSIPLSGDYQWKRGKAQQQHQPLEFVKKSHKFEYGSPAPTPPLPGLSCYVGANFTTHQFTVNGGEDVTMKVMPYSQQGSRAICILSATGSISNVTLGQPTNAGGTLTYEGRFEILSLSGSFMPTENGGTKGRAGGMSISLAGPNGNIFGGGLAGMLIAAGPVQVVMGSFIVMHQAEQNQKKKPRVMEAFAPPQPQAPPQLQQQQPPTFTITTVNSTSPSVNTVEEQKPQAYGGGIVRPMAQMPSSFQNDNSTMNNFTPAYHGYGNMNTGTTHKEEHEDEDGGDDDDDSGDTRSQSHSG

Amino acid sequences for entries named in this document (tags omitted).
UniProt O22130: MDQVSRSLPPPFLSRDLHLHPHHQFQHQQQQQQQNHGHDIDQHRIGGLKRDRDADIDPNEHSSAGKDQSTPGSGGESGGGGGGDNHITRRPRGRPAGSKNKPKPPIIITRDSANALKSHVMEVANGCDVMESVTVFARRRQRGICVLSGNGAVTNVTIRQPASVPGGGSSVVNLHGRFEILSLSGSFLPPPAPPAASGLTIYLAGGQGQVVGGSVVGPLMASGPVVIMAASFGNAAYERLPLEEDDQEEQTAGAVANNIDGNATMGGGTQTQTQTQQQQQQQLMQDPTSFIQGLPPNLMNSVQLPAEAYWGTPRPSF
UniProt Q9C9K7: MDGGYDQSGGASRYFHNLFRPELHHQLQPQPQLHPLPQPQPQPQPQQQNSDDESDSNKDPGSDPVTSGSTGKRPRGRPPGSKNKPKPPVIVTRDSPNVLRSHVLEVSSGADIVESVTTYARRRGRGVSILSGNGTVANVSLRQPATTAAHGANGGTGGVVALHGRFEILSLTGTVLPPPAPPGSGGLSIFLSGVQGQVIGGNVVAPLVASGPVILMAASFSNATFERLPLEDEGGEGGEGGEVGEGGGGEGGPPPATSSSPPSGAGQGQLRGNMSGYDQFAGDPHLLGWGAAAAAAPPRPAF

How the values were obtained:
Assay in all cases: two-hybrid; targeted yeast two-hybrid in yeast strain L40ccU3; bait in pBTM116-GW-D9, prey in pACT2-GW; growth of four colonies on SDIV lacking tryptophan, leucine, histidine and uracil with 1 mM 3-AT; 28 °C, 3-6 days
[1] = molecular target: AtAHL22 (Arabidopsis thaliana) (UniProt O22130)
[2] = molecular target: T1, AT-HOOK MOTIF CONTAINING NUCLEAR LOCALIZED #20 (AtAHL20) (Arabidopsis thaliana) (UniProt Q8GWQ2)
T1 sequence: B1 chain

[3] = molecular target: T2, AtAHL6 (Arabidopsis thaliana) (UniProt Q9LVB0)
T2 sequence: B3 chain

[4] = molecular target: AtAHL29 (Arabidopsis thaliana) (UniProt Q9C9K7)
[5] = molecular target: AtAHL19 (Arabidopsis thaliana) (UniProt Q9SR17)

Binder	binding [1]	binding [2]	binding [3]	binding [4]	binding [5]
B1	binds	binds	no binding	binds	
B2		binds		binds	binds
B3			binds		

— PMC7731500
